# Structures can show the parent of a compound that is named as a salt. ± gives the standard deviation of the averaged measurements. The full ranking holds about 3,100 compounds; the median of “mean cytoplasmic OPP incorporation (global translation) relative to DMSO” is about 100, and the lowest 2% start at about 56. Some of the results follow.
# Test system: U2OS
# Experiment: mean cytoplasmic OPP incorporation (global translation) relative to DMSO (% of DMSO); higher = more protein synthesis
# Conditions: 10 µM; 24 h
# Protocol: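 Primary image-based screen in U2OS cells: compounds at 10 uM for 24 h, then a 1 h o-propargyl-puromycin (OPP) pulse, click labelling, and high-throughput microscopy. Mean cytoplasmic OPP intensity and nuclei count were normalised to DMSO wells within each plate (DMSO = 100) and averaged over triplicate plates.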
row,SMILES,mean cytoplasmic OPP incorporation
1,C[C@H](CCC(=O)O)[C@H]1CC[C@H]2[C@@H]3[C@H](O)C[C@@H]4C[C@H](O)CC[C@]4(C)[C@H]3C[C@H](O)[C@]12C [Cholic acid],100
2,O=c1ccc2cc(O)c(O)cc2o1 [Esculetin],120
3,COc1ccccc1N1CCN(CCCCNC(=O)c2ccc(-c3ccc(C(C)=O)cc3)cc2)CC1,115
4,CCCCCCCC/C=C\CCCCCCCC(N)=O [Oleamide],101
5,COC1(C2=NCCN2)COc2ccccc2O1 (configuration not stated),102
6,OC[C@H]1O[C@@H](n2cnc3c(N[C@H]4CCC[C@@H]4O)ncnc32)[C@H](O)[C@@H]1O,102
7,Cc1ncc(-c2ccnc(Nc3ccc(S(C)(=O)=O)cc3)n2)n1C(C)C,55.9
8,CC(C)NC[C@@H](O)COc1ccc(CC(N)=O)cc1 [(R)-(+)-Atenolol],104
9,NS(=O)(=O)c1cc2c(cc1C(F)(F)F)NCNS2(=O)=O [Hydroflumethiazide],92.1
10,NC(=O)CCCCn1ccc(NC(N)=NCC(F)(F)F)n1,108
11,CN(C)CCCN=c1c2ccccc2n(C)c2[nH]c(=O)n(C)c(=O)c12,85.2
12,COC(=O)C1=C(C)NC(C)=C([N+](=O)[O-])[C@H]1c1ccccc1C(F)(F)F,106
13,O=C(Nc1ccccc1)C12CC1C(=NO)c1ccccc1O2 (configuration not stated),92.4
14,N#CCNC(=O)c1ccc(-c2ccnc(Nc3ccc(N4CCOCC4)cc3)n2)cc1 [Momelotinib (CYT387)],95.6
15,OCc1c[nH]c2ccccc12 [Indole-3-carbinol],113
16,Cc1c(NC(=O)c2cccnc2)c(=O)n(-c2ccccc2)n1C [Nifenazone],98.6
17,O=C(/C=C/c1ccc(O)cc1)c1ccc(O)cc1O [Isoliquiritigenin],100
18,CS(=O)(=O)OCCCCOS(C)(=O)=O [Busulfan],102
19,CC(=N)NCCCC[C@H](N)C(=O)O [L-NIL hydrochloride],98.3
20,CN1CCc2c(c3ccccc3n2Cc2ccc(C(=O)NO)cc2)C1 [Tubastatin A HCl],75.7
21,CC[C@@H]1C(=O)OC[C@@H]1Cc1cncn1C [Pilocarpine hydrochloride],99.9
22,CC[C@@H]1C(=O)OC[C@@H]1Cc1cncn1C [Pilocarpine nitrate],97.8
23,CC(C)(CO)c1cc2cc(NC(=O)C3(c4ccc5c(c4)OC(F)(F)O5)CC3)c(F)cc2n1C[C@@H](O)CO,101
24,"Cc1c(CN2CCN(C(=O)[C@H](C)O)CC2)sc2c(N3CCOCC3)nc(-c3cnc(N)nc3)nc12 [Apitolisib (GDC-0980, RG7422)]",50.7

row,SMILES,mean cytoplasmic OPP incorporation
1,Cc1cnc(-c2cc(N3CCN(C(=O)CCS(C)(=O)=O)CC3)ncc2Cl)c(C)c1,95.9
2,C[C@@H](O[C@H]1OCCN(Cc2nn(P(=O)(O)O)c(=O)[nH]2)[C@H]1c1ccc(F)cc1)c1cc(C(F)(F)F)cc(C(F)(F)F)c1 [Fosaprepitant dimeglumine],108
3,CCC(C)(Oc1ccc(C2(c3ccc(OC(C)(CC)C(=O)O)cc3)CCCCC2)cc1)C(=O)O (configuration not stated) [Clinofibrate],100
4,COc1cc2nccc(Oc3ccc(NC(=O)NC4CC4)c(Cl)c3)c2cc1C(N)=O [E7080 (Lenvatinib)],97.3 ± 0.1
5,CCn1c(=O)[nH]c2cc(Cl)c(Cl)cc21,98.5
6,CC(=O)OCC(=O)[C@@]12OC(C)(C)O[C@@H]1C[C@H]1[C@@H]3C[C@H](F)C4=CC(=O)C=C[C@]4(C)[C@@]3(F)[C@@H](O)C[C@@]12C [Fluocinonide (Vanos)],105
7,CC(=O)OCC(=O)[C@@]12OC(C)(C)O[C@@H]1C[C@H]1[C@@H]3C[C@H](F)C4=CC(=O)C=C[C@]4(C)[C@@]3(F)[C@@H](O)C[C@@]12C [Fluocinonide],105
8,c1ccc2c(CC3=NCCN3)cccc2c1 [Naphazoline hydrochloride],102
9,CCN(CC)CC(=O)Nc1c(C)cccc1C [Lidocaine hydrochloride],104
10,CC(=O)CC(c1ccccc1)c1c(O)c2ccccc2oc1=O (configuration not stated) [Warfarin],107
11,NS(=O)(=O)c1cc2c(cc1Cl)NC(C1CC3C=CC1C3)NS2(=O)=O (configuration not stated) [Cyclothiazide],94.8
12,S=C(S)N1CCCC1 [Pyrrolidinedithiocarbamate ammonium],94.2
13,CO[C@@H]1[C@@H](O[C@@H]2O[C@H](C)[C@@H](O[C@H]3C[C@@](C)(O)[C@@H](OC(=O)CC(C)C)[C@H](C)O3)[C@H](N(C)C)[C@H]2O)[C@@H](CC=O)C[C@@H](C)[C@@H](O)/C=C/C=C/C[C@@H](C)OC(=O)C[C@H]1OC(C)=O [Josamycin],110
14,O=c1oc2c(O)c(O)cc3c(=O)oc4c(O)c(O)cc1c4c23 [Ellagic Acid],111
15,O=c1oc2c(O)c(O)cc3c(=O)oc4c(O)c(O)cc1c4c23 [Ellagic acid],106
16,CNC(=O)c1cc(Oc2ccc(NC(=O)Nc3ccc(Cl)c(C(F)(F)F)c3)cc2)ccn1 [Sorafenib],91.2
17,CNC(=O)c1cc(Oc2ccc(NC(=O)Nc3ccc(Cl)c(C(F)(F)F)c3)cc2)ccn1 [Sorafenib tosylate],129
18,CNC(=O)c1cc(Oc2ccc(NC(=O)Nc3ccc(Cl)c(C(F)(F)F)c3)cc2)ccn1 [Sorafenib (Nexavar)],94.3
19,COc1cccc2c1C(=O)c1c(O)c3c(c(O)c1C2=O)C[C@@](O)(C(C)=O)C[C@@H]3O[C@H]1C[C@H](N)[C@H](O)[C@H](C)O1 [Daunorubicin HCl (Daunomycin HCl)],59.9
20,COc1cccc2c1C(=O)c1c(O)c3c(c(O)c1C2=O)C[C@@](O)(C(C)=O)C[C@@H]3O[C@H]1C[C@H](N)[C@H](O)[C@H](C)O1 [Daunorubicin hydrochloride],40.7
21,CC(=O)NS(=O)(=O)c1ccc(N)cc1 [Sulfacetamide Sodium],99.6
22,CC(=O)NS(=O)(=O)c1ccc(N)cc1 [Sulfacetamide sodic hydrate],92.9
23,Cc1cn([C@H]2C=C[C@@H](CO)O2)c(=O)[nH]c1=O [Stavudine],104 ± 8.6

# — the supplement of paper PMC8183993
